The record followed here is the supplement of paper PMC9135407.

Several values for one entry are separate records, joined by “and”; a condition that tells them apart may be missing. Equal entries are not always repeated. Structures can show the parent of a compound that is named as a salt. The whole screen tested about 5,800 compounds, of which about 620 (11%) showed activity.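 The calls were made as follows: active = score above a cut-off or among the top three wells of a plate; in these data no inactive exceeds 0.85.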 This is a selection; strong and weak results do not stand in their true shares. Where only a bound is given, the exact number is not on record here.

The test has as its system primary human hepatic stellate cells (donor 1). Briefly: scaled lipid accumulation score (0 = DMSO-like, 1 = nortriptyline-like); higher = stronger HSC inactivation (lipid re-accumulation), active = hit call of the paper. As to conditions: 48 h.
The mark [1] stands for this setting: library stock concentration: 10 mM.
The mark [2] stands for this setting: library stock concentration: 80 uM.
Setting [3] is: library stock concentration: 400 uM.
Setting [4] is: library stock concentration: 2 mM.
[5] abbreviates: library stock concentration: 3.33 mM.
The mark [6] stands for this setting: library stock concentration: 1 mM.

Turning to `C[C@H](CCC(=O)NCCS(=O)(=O)O)[C@H]1CC[C@H]2[C@@H]3[C@H](O)C[C@@H]4C[C@H](O)CC[C@]4(C)[C@H]3C[C@H](O)[C@]12C` [Sodium Taurocholate hydrate], under setting [1], the “scaled lipid accumulation score” value is inactive: ≤ 0.

`Cc1ccc(S(=O)(=O)/C=C/C#N)cc1`: the “scaled lipid accumulation score” value by setting is: under setting [2], inactive: ≤ -0.001; under setting [3], inactive: ≤ -0.001; under setting [4], inactive: 0.813; under setting [5], inactive: 0.807; under setting [1], inactive: 0.729 and inactive: 0.437; (library stock concentration: 24.1 mM) inactive: 0.648.

For the compound `CC(C)(C)OC(=O)Nc1ccc(-c2cc(C(=O)NCCCCCCC(=O)NO)no2)cc1`, the “scaled lipid accumulation score” value under setting [6] is inactive: ≤ 0.

With `Nc1nc(Nc2ccccc2)nc2c1ncn2[C@@H]1O[C@H](CO)[C@@H](O)[C@H]1O`, the “scaled lipid accumulation score” value under setting [1] was inactive: ≤ 0.

On to `CC1(C)CC(=O)C(C2C3=C(CC(C)(C)CC3=O)Oc3ccccc32)C(=O)C1` (stereo not given), for which the “scaled lipid accumulation score” value under setting [1] is inactive: ≤ -0.002.

For `Fc1ccc([C@@H]2CCNC[C@H]2COc2ccc3c(c2)OCO3)cc1.O=C(O)/C=C\C(=O)O` [Paroxetine maleate], the “scaled lipid accumulation score” value under setting [1] was active: 1.14.

Turning to `CCCCC/C=C\C/C=C\CCCCCCCC(=O)OCC(O)CO` (stereo not given) [1-Linoleoyl Glycerol], under setting [6], the “scaled lipid accumulation score” value is inactive: ≤ 0.

With `CN1CC(=O)N=C1NC(=O)Nc1cccc(Cl)c1` [Fenobam], under setting [1], the “scaled lipid accumulation score” value was inactive: 0.352 and inactive: ≤ -0.001.

On to `CC[C@H](C)C(=O)O[C@H]1C[C@H](O)C=C2C=C[C@H](C)[C@H](CC[C@@H](O)C[C@@H](O)CC(=O)O)[C@H]21` [Pravastatin sodium salt], for which, under setting [1], the “scaled lipid accumulation score” value was inactive: 0.04.

Turning to `CC[C@H](C)C(=O)O[C@H]1C[C@H](O)C=C2C=C[C@H](C)[C@H](CC[C@@H](O)C[C@@H](O)CC(=O)O)[C@H]21` [PRAVASTATIN Sodium], the “scaled lipid accumulation score” value (library stock concentration: 9.5 mM) was inactive: ≤ 0.

Take `CC[C@H](C)C(=O)O[C@H]1C[C@H](O)C=C2C=C[C@H](C)[C@H](CC[C@@H](O)C[C@@H](O)CC(=O)O)[C@H]21` [Pravastatin sodium]: the “scaled lipid accumulation score” value by setting is: under setting [5], inactive: ≤ 0; (library stock concentration: 4.5 mM) inactive: ≤ 0; under setting [1], inactive: ≤ 0 and inactive: ≤ -0.027.

With `CC1=C(C(=O)O)N2C(=O)[C@@H](NC(=O)[C@H](N)c3ccccc3)[C@H]2SC1` [Cephalexin monohydrate], the “scaled lipid accumulation score” value was inactive: ≤ 0. Moreover, the “scaled lipid accumulation score” value under setting [1] was inactive: 0.196.

Consider `CC1=C(C(=O)O)N2C(=O)[C@@H](NC(=O)[C@H](N)c3ccccc3)[C@H]2SC1` [Cephalexin], for which the “scaled lipid accumulation score” value under setting [5] is inactive: 0.022, the “scaled lipid accumulation score” value (library stock concentration: 5.8 mM) was inactive: ≤ 0 and the “scaled lipid accumulation score” value under setting [1] is inactive: ≤ 0.

As for `CC1=C(C(=O)O)N2C(=O)[C@@H](NC(=O)[C@H](N)c3ccccc3)[C@H]2SC1` [Cephalexin hydrate], the “scaled lipid accumulation score” value under setting [1] was inactive: 0.279.

For the compound `CCCc1c(OCCCOc2ccc(OCC(=O)O)cc2)ccc(C(C)=O)c1O`, under setting [1], the “scaled lipid accumulation score” value was inactive: 0.041 and inactive: ≤ -0.006.

In the case of `CCCOc1ccc(C=C2SC(=O)NC2=O)cc1`, the “scaled lipid accumulation score” value was inactive: ≤ -0.001 under setting [2], inactive: ≤ -0.001 under setting [3], inactive: ≤ -0.001 under setting [4] and inactive: ≤ -0.001 under setting [1].

As for `CO[C@H]1C=CC=C(C)C(=O)NC2=CC(=O)C(NCCN(C)C)=C(C[C@@H](C)C[C@H](OC)[C@H](O)[C@@H](C)C=C(C)[C@@H]1OC(N)=O)C2=O.Cl` [17-DMAG (Alvespimycin) HCl], the “scaled lipid accumulation score” value under setting [1] was active: 1.24.

For the compound `CC/C=C\C/C=C\C/C=C\CCCCCCCC(=O)O` [.alpha.-Linolenic Acid], the “scaled lipid accumulation score” value under setting [6] is inactive: 0.009.

Consider `CC/C=C\C/C=C\C/C=C\CCCCCCCC(=O)O` [Linolenic acid (18:3 n-3)], for which, under setting [6], the “scaled lipid accumulation score” value was inactive: ≤ -0.021.

As for `CCCC(=O)Nc1cccc(NC(=O)c2ccccc2Br)c1`, the “scaled lipid accumulation score” value was inactive: ≤ 0 under setting [5] and inactive: 0.024 under setting [1].

For `C#CC1(O)CC[C@H]2[C@@H]3CCC4=CC(=O)CC[C@@H]4[C@H]3CC[C@@]21CC` (stereo not given in full) [Norgestrel], the “scaled lipid accumulation score” value reads like this: under setting [6], inactive: 0.037; under setting [1], inactive: 0.03.

As to `CO[C@H]1C[C@@H]2CC[C@@H](C)[C@@](O)(O2)C(=O)C(=O)N2CCCC[C@H]2C(=O)O[C@H]([C@H](C)C[C@@H]2CC[C@H](n3cnnn3)[C@H](OC)C2)CC(=O)[C@H](C)/C=C(\C)[C@@H](O)[C@@H](OC)C(=O)[C@H](C)C[C@H](C)/C=C/C=C/C=C/1C` [Zotarolimus(ABT-578)], the “scaled lipid accumulation score” value was inactive: 0.109 under setting [5] and inactive: ≤ 0 under setting [1].

For `O=C(O)c1ccc(O)c2ncccc12`, the “scaled lipid accumulation score” value under setting [5] was inactive: 0.005 and the “scaled lipid accumulation score” value under setting [1] is inactive: ≤ 0.

For `O=C1c2ccccc2CCC1CNCCc1ccc(O)cc1` (stereo not given) [HEAT hydrochloride], under setting [1], the “scaled lipid accumulation score” value is inactive: 0.394.

With `COCCCC/C(=N\OCCN)c1ccc(C(F)(F)F)cc1.O=C(O)/C=C\C(=O)O` [Fluvoxamine maleate], under setting [1], the “scaled lipid accumulation score” value is active: 1.13.

In the case of `Nc1nnc(-c2cccc(Cl)c2Cl)c(N)n1` [Lamotrigine], the “scaled lipid accumulation score” value reads like this: under setting [5], inactive: ≤ 0; (library stock concentration: 7.8 mM) inactive: ≤ -0.006 and inactive: ≤ 0; under setting [1], inactive: ≤ 0 and inactive: ≤ -0.055.

With `CCCCCCCCc1ccc(CCC(N)(CO)CO)cc1.Cl` [Fingolimod (FTY720) HCl], the “scaled lipid accumulation score” value under setting [5] was active: 1.17.

Turning to `Cc1cc(Nc2cc(CN3CCOCC3)c3nc(C)c(Cc4ccc(Cl)cc4F)n3n2)n[nH]1`, the “scaled lipid accumulation score” value was inactive: ≤ 0 under setting [5] and inactive: 0.474 under setting [1].

As to `Brc1ccc(C2CN3CCSC3=N2)cc1` (single isomer, unassigned; (-)) [(-)-p-Bromotetramisole Oxalate], the “scaled lipid accumulation score” value reads like this: under setting [5], inactive: ≤ -0.009; under setting [1], inactive: 0.192.

On to `O=C(O)CCC/C=C\C[C@H]1[C@@H](O)CC(=O)[C@@H]1/C=C/[C@@H](O)COc1cccc(C(F)(F)F)c1` [11-keto Fluprostenol], for which the “scaled lipid accumulation score” value under setting [6] is inactive: ≤ 0.

As for `NC(C(=O)O)c1ccc(C(=O)O)c(C(=O)O)c1` (racemic), the “scaled lipid accumulation score” value under setting [1] is inactive: ≤ -0.006.

With `COc1cc2c(Oc3ccc4[nH]c(C)cc4c3F)ncnc2cc1OCCCN1CCCC1` [Cediranib (AZD2171)], the “scaled lipid accumulation score” value under setting [5] was active: 1.1.

`CCCCCS(=O)(=O)CCCCCCCCCCn1c(-c2ccc(O)cc2)c(C)c2cc(O)ccc21`: the “scaled lipid accumulation score” value under setting [1] was inactive: 0.009.

On to `COc1cc2nc(N3CCN(C(=O)c4ccco4)CC3)nc(N)c2cc1OC.Cl` [Prazosin hydrochloride], for which the “scaled lipid accumulation score” value under setting [1] is active: 1.35.
